Test results from PubChem BioAssay AID1963865 (Molecular Pharmacology Branch, DTP, NCI, 2024).
Not every entry of the source has a single result; some have several. The other results are left out here. There may be further records. Values given together repeat one measurement across runs, samples, wells, individuals or studies. Counts like (3×) count equal records among those shown. Dates in brackets are months of testing.

Test system: KRAS PDC multicell spheroid viability
Experiment: Anticancer human tumor 825966-067-R-J1-PDC patient-derived colon carcinoma cell line growth inhibition [KRAS2]
Conditions: for viability, T/C: stronger effect = lower value
Excerpt: Multicellular complex tumor spheroid response to RAS pathway inhibitors in combination with a targeted agents in patient-derived cell lines with oncogenic KRAS variants from multiple cancer types
A high-throughput screen of multi-cell type tumor spheroids was designed to identify active combinations of targeted small molecules and KRAS pathway inhibitors. Complex spheroids include a stromal component modeled by human endothelial cells (HUVEC) and fibroblasts modeled by human mesenchymal stem cells (MSCs). The concentration ranges selected for each drug and investigational agent were based upon clinically achievable concentrations if the clinical Cmax of the agent was known.
Compounds. The drugs and investigational agents: BI-3406 (NSC825286), BAY-293 (NSC824723), batoprotafib (TNO155; NSC825523), sotorasib (AMG 510; NSC818433), MRTX1257 (NSC819558), elimusertib (BAY 1895344; NSC800525), molibresib (GSK525762; NSC774829), temuterkib (LY3214996; NSC803410), venetoclax (NSC766270), alisertib (NSC759677), olaparib (NSC753686), talazoparib (NSC767125), erdafitinib (NSC781556), ipatasertib (NSC767898), cabozantinib (NSC761068), nintedanib (NSC756659), abemaciclib (NSC768073), docetaxel (NSC628503), trametinib (NSC758246), and sapanisertib (NSC764658) were obtained from the National Cancer Institute (NCI) Developmental Therapeutics Program Chemical Repository. The FDA-approved anticancer drug set is available from the Developmental Therapeutics Program. […] The stock solutions were prepared in dimethyl sulfoxide (DMSO, Sigma-Aldrich, St. Louis, MO, cat. D2650) at 800-fold the tested concentration and stored at -70 degrees C prior to their use. All drugs and investigational agents were tested over a range starting from a high concentration at or near the clinical Cmax and decreasing in half-log increments. If the clinical Cmax for an agent had not been determined, the highest concentration tested was 10 microM.
Cell Culture. All cells were maintained in an incubator at 37 degrees C and 5% CO2 with 95% humidity. The PDC lines were cultured according to standard operating procedures established by the NCI PDMR (https://pdmr.cancer.gov/sops/default.htm). Briefly, all PDCs were thawed and cultured in Matrigel-coated flasks prepared with a working solution of 1X Ham's F-12 nutrient mix, without supplementation (Invitrogen, Waltham, MA, cat. 11765054), 100 U/mL penicillin-streptomycin (Invitrogen, cat. 15140122), and 2.5% Matrigel (Corning Inc., Corning, NY, cat. 354248) for the first three passages. All PDCs were cultured in complete DMEM/F-12 media containing advanced DMEM/F-12 (Invitrogen, cat. 12634028), 4.9% defined fetal bovine serum, heat inactivated (HyClone Laboratories Inc., Logan, UT, cat. SH30070.03HI), 389 ng/mL hydrocortisone (Sigma-Aldrich, cat. H4001), 9.7 ng/mL human EGF recombinant protein (Invitrogen, cat. PHG0313), 23.4 microg/mL adenine (Sigma-Aldrich, cat. A2786), 97.3 U/mL penicillin-streptomycin (Invitrogen, cat. 15140122), 1.9 mM L-glutamine (Invitrogen, cat. 25030081), and 9.7 microM Y-27632 dihydrochloride (Tocris Bioscience, Bristol, United Kingdom, cat. 1254). The PDCs were cultured in complete DMEM/F12 media without 9.7 microM Y-27632 dihydrochloride for at least two passages prior to the screen. The established cell line HOP-62 was cultured in RPMI 1640 medium, HEPES (Invitrogen, cat. 22400105) with 10% defined fetal bovine serum (HyClone Laboratories Inc., cat. SH30070.03) and 2 mM L-glutamine (Invitrogen, cat. 25030081). The pooled donor HUVEC were cultured in endothelial cell growth medium 2 (PromoCell, Heidelberg, Germany, cat. C-22011) and the hMSC were cultured in mesenchymal stem cell growth medium 2 (PromoCell, cat. C-28009). For all experiments, HUVEC and hMSC were used at passages </=5, while the malignant cell lines were used at passages </=15. […]
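Also: spheroids exposed to compounds for 7 days.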
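For viability, T/C in this document: 100% = DMSO vehicle control viability.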

Structure (SMILES)	viability, T/C (compound alone 0.0316 µM)	viability, T/C (compound alone 0.316 µM)	viability, T/C (compound alone 1 µM)	viability, T/C (compound alone 0.1 µM)	viability, T/C (compound alone 3.16 µM)	other results
CN(C)C/C=C/C(=O)Nc1cc2c(Nc3ccc(F)c(Cl)c3)ncnc2cc1O[C@H]1CCOC1	116, 104, 90, 86.9, 98.8%					viability, T/C (compound alone 0.000316 µM): 127, 92.5, 80.7, 94.4, 103%; viability, T/C (compound alone 0.001 µM): 125, 99.7, 97.4, 105, 102%; viability, T/C (compound alone 0.00316 µM): 105, 115, 101, 85.6, 87.6%; viability, T/C (compound alone 0.01 µM): 111, 98.4, 72.7, 79.3, 82%
COc1cc(Nc2ncc3c(n2)-c2ccc(Cl)cc2C(c2c(F)cccc2OC)=NC3)ccc1C(=O)O	90.2, 134, 123, 129, 105%	102, 138, 125, 95, 111%				
COC(=O)c1ccc2c(C(=Nc3ccc(N(C)C(=O)CN4CCN(C)CC4)cc3)c3ccccc3)c(O)[nH]c2c1			40.8, 61.5, 50.1, 74.5, 90.9%			
CC(C)n1nc(-c2ccc3oc(N)nc3c2)c2c(N)ncnc21	118, 137, 141, 126, 145%			131, 121, 161, 133, 153%		viability, T/C (compound alone 0.000316 µM): 111, 109, 140, 107, 98.6%; viability, T/C (compound alone 0.001 µM): 120, 93.7, 134, 108, 121%; viability, T/C (compound alone 0.01 µM): 134 (2×), 142, 112, 149%
CCNC(=O)CC1N=C(c2ccc(Cl)cc2)c2cc(OC)ccc2-n2c(C)nnc21 (stereo not drawn)	82.2, 95.4, 118, 90.8, 91.8%	102, 77.9, 104, 88.6, 134%	108, 80.5, 95.3, 93.3, 98.5%	81.4, 108, 101, 123, 112%	93.2, 69.7, 99.2, 84.9, 106%	
CC(C)NCC(C(=O)N1CCN(c2ncnc3c2C(C)CC3O)CC1)c1ccc(Cl)cc1 (stereo not drawn)	106, 109, 73.1, 81.3, 94.8%		90.3, 94.2, 72.6, 128, 103%	97.5, 109, 77.1, 92.1, 72.8%		
C=CC(=O)N1CCN(c2nc(=O)n(-c3c(C)ccnc3C(C)C)c3nc(-c4c(O)cccc4F)c(F)cc23)C(C)C1 (stereo not drawn)		93.3, 103, 81.5, 76.8, 77.3, 83.5, 99, 97.2, 88, 82.8, 81.3% [2021-08] and 88.2, 87.8, 89.5, 84.7, 76.8, 74.9% [2021-09]	80.3, 76.5, 100, 75.3, 79.5, 81.6, 86.8, 95.7, 91.4, 99.6, 103% [2021-08] and 96.4, 83.8 (2×), 84.8, 75.2, 85.8% [2021-09]	89.3, 90, 80.8, 82.2, 77.5, 82.3, 118, 82.6, 105, 99.2, 74.4% [2021-08] and 82, 93.8, 99.7, 101, 69.5, 72.2% [2021-09]	81.9, 83, 96.1, 68.8, 92, 69.9, 77.3, 89.2, 80.1, 95.9, 83.3% [2021-08] and 68.9, 75.2, 77.5, 96.8, 66.6, 81.9% [2021-09]	viability, T/C (compound alone 10 µM): 81.5, 85.4, 79.2, 77.8, 72.6, 94.8, 88.7, 62, 85.5, 111, 97.3% [2021-08] and 89.4, 75.1, 76.8, 104, 77.1, 87.1% [2021-09]
COc1cc2nccc(Oc3ccc(NC(=O)C4(C(=O)Nc5ccc(F)cc5)CC4)cc3)c2cc1OC				73.5, 104, 101, 93.7, 92.9%		
O=C(c1cc(Cc2n[nH]c(=O)c3ccccc23)ccc1F)N1CCN(C(=O)C2CC2)CC1	103 (2×), 110, 95.3, 83.8%	108, 103, 96.3, 67.4, 76.1%	110, 78.4, 88, 89, 69.4%			viability, T/C (compound alone 10 µM): 88, 97.9, 82, 63.4, 63.6%
COc1cc(OC)cc(N(CCNC(C)C)c2ccc3ncc(-c4cnn(C)c4)nc3c2)c1					157, 109, 113, 112, 138%	IC50 (compound alone): 6.16 µM, 7.24 µM, > 10 µM, 5.43 µM, 6.29 µM; viability, T/C (compound alone 10 µM): 5.04, 32.3, 52, 3.85, 17.3%
C=CC(=O)N1CCN(c2nc(OCC3CCCN3C)nc3c2CCN(c2cccc4cccc(C)c24)C3)CC1CC#N (stereo not drawn)	109 (2×), 91.4, 98.3, 80.7, 89.1, 95.3, 90, 77.9, 91.5, 84.9% [2021-08] and 89.4, 91.1, 111, 91.6, 78.2, 81.1% [2021-09]	94.8, 83.3, 90.8, 84.8, 89.2, 81.4, 97.6, 82.2, 89.8, 96.8, 62.1% [2021-08] and 81.3, 88.7, 90.9, 96.5, 70.8, 82.4% [2021-09]	97.5, 85.2, 104, 86.4, 88.2, 92.7, 87.1, 79.9, 85.6, 96.8, 83.2% [2021-08] and 95.1, 107, 103, 109, 78.2, 92.9% [2021-09]		115, 83.2, 126, 79, 82.3, 68.1, 75.5, 83.4, 51.7, 106, 76.9% [2021-08] and 68.1, 126, 121, 34.6, 86, 89.6% [2021-09]	
